Experimental data: PubChem BioAssay AID504333 (National Center for Advancing Translational Sciences (NCATS), 2011)
Hit rate of the full screen: of about 360,000 compounds, about 16,000 (4.4%) were called active. The inconclusive results got no clear call from the source; some entries with a clear call stand among them for comparison. Calls follow the shape of the dose curve; as a rule, active = well fitted inhibition curve with a large enough effect; inconclusive = small, poorly fitted or top-dose-only effect; inactive = no such curve, though single readings can be large or run the other way. A potency beside an inconclusive call is a rough fit, not a confirmed value.

molecular target: Bromodomain adjacent to zinc finger domain protein 2B (Homo sapiens) (UniProt Q9UIF8); assay: qHTS Assay for Inhibitors of BAZ2B; conditions: AlphaScreen BAZ2B-H3K14Ac peptide displacement; activity change, negative = inhibition: at 114 µM (top of the series); also: nearly all actives have a fitted effect of over 60% in size
Method in brief: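 BAZ2B 50 nM plus b-H3(5-23)K14Ac 50 nM, PBS pH 7.4/0.01% Tween-20, 30 min RT; compound added (max 110 uM), 30 min RT; streptavidin donor/Ni-chelate acceptor beads 10 ug/mL final, 20 min dark; AlphaScreen read.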
% is scaled to controls: 0 for no effect and ±100 for the full control effect; potency is read from the fitted curve at half-maximal effect; tags tell the direction and shape of the fitted curve.

UniProt Q9UIF8, sequence (Q9UIF8 whole entry, looked up, the tested form may be a part): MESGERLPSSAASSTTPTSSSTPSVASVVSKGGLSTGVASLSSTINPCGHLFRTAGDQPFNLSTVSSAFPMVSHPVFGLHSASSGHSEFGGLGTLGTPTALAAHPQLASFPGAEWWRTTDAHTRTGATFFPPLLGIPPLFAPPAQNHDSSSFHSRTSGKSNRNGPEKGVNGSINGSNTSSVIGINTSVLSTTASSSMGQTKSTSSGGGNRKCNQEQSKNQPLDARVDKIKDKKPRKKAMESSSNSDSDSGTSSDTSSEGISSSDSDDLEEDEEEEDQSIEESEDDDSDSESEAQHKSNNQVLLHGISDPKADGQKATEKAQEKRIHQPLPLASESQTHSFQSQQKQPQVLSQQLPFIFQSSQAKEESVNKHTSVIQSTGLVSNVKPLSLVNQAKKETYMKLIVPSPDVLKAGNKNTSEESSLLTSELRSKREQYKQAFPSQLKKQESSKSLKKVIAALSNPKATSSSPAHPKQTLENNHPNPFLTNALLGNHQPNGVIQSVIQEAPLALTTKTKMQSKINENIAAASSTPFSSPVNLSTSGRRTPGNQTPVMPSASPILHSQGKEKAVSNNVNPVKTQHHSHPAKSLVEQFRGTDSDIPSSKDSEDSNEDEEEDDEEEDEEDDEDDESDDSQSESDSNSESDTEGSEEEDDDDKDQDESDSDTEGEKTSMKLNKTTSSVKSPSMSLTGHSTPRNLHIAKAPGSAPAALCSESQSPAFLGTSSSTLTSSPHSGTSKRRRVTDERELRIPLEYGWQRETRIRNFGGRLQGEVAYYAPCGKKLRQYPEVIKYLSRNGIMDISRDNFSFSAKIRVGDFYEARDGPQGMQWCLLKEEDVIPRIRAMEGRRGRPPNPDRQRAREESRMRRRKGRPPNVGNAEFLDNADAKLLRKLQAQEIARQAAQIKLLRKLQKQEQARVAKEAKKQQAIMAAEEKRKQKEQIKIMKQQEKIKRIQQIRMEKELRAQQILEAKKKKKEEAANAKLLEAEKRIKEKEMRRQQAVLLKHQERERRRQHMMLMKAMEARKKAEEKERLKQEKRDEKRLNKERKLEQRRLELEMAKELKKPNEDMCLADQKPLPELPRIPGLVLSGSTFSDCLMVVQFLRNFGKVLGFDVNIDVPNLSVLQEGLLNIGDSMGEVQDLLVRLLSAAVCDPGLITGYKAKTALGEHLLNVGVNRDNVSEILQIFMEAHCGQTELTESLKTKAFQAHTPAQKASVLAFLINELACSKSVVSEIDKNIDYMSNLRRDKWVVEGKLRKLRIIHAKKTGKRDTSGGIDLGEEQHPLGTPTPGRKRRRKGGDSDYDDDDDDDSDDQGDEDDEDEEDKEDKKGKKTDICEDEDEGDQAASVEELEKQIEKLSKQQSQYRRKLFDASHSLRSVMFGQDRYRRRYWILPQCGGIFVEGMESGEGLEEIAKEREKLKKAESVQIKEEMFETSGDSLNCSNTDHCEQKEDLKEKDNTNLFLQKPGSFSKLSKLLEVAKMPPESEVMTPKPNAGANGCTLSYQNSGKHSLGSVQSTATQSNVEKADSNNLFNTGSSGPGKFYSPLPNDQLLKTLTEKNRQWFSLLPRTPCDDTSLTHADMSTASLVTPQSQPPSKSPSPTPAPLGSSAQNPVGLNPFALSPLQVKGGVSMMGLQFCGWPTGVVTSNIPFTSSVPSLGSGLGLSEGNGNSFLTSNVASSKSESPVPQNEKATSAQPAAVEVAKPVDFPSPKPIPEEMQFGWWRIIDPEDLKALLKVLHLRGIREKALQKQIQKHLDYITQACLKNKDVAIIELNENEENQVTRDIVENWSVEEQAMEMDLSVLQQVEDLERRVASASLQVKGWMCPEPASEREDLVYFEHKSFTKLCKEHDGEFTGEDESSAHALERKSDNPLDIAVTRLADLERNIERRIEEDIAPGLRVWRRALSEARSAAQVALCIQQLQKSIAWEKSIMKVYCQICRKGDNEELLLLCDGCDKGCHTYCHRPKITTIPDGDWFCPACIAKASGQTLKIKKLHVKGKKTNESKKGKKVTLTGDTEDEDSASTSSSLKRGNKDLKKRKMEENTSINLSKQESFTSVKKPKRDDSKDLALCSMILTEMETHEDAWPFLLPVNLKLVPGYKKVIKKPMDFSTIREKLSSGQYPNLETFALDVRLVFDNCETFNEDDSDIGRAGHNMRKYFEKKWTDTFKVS

| SMILES | Potency | activity change, negative = inhibition |
| --- | --- | --- |
| Cc1c(Cl)cn2c(=O)cc(CN3CCN(c4ccc(F)cc4)CC3)nc2c1Cl | inconclusive: 63.1 µM [inhibitor, partial curve, poor fit] |  |
| CNCc1nc2ccccc2[nH]1 | inconclusive: 79.4 µM [inhibitor, single point] |  |
| CCc1cccc(C)c1NC(=O)Cn1ccn(-c2ccc(F)cc2)c(=O)c1=O |  | inactive: 1.87% |
| O=c1c(OC2OC(CO)C(O)C(O)C2OC2OC(CO)C(O)C(O)C2OC2OC(CO)C(O)C(O)C2O)c(-c2ccc(O)c(O)c2)oc2cc(O)cc(O)c12 (stereo not drawn) | inconclusive: 89.1 µM [inhibitor, single point] |  |
| Oc1ccc(/C=N/N(Cc2ccccc2)c2ccccc2)c(O)c1O | active: 28.2 µM |  |
| COc1ccc(OC)c(C(=O)NC2CC(C)(C)Cc3c2cnn3-c2ccccc2)c1 (stereo not drawn) | active: 70.8 µM |  |
| Cc1ccc(-n2cc(CN(C)Cc3ncc[nH]3)c(-c3cccc(C)c3)n2)cc1 | active: 50.1 µM |  |
| O=C(COCC(=O)N1CCOCC1)N1CCOCC1 |  | inactive: 0.469% |
| C=CCNc1nc(C(=O)OCC(=O)c2ccccc2)cs1 | inconclusive: 70.8 µM [inhibitor, single point] |  |
| COc1ccc(S(=O)(=O)N(CCc2ccccc2)CC(=O)Nc2cccc(OC)c2)cc1 |  | inactive: 31.5% |
| CCOc1ccc(C2=NC(c3cccs3)=Nc3ccc(C(C)C)cc3N2)cc1 | active: 22.4 µM |  |
| Cc1cccc(CC2C(=O)Nc3ccccc32)c1 (stereo not drawn) | inconclusive: 79.4 µM [inhibitor, single point] |  |
| Cc1cc(OC(=O)c2ccco2)c(Sc2ccccc2[N+](=O)[O-])c(=O)o1 | inconclusive: 79.4 µM [inhibitor, partial curve] |  |
| COc1ccc(O)c(/C=N/NC(=O)c2c(C)nnn2-c2nonc2N)c1 | inconclusive: 79.4 µM [inhibitor, single point] |  |
| Cc1ccoc1C(=O)NCc1occc1C(=O)O | inconclusive: 79.4 µM [inhibitor, single point] |  |
| CCN(CC)CCNC(C(=O)Nc1cccc(C(C)=O)c1)c1ccccc1 (stereo not drawn) | active: 56.2 µM |  |
| CCOc1ccccc1-n1c(SCC(=O)N(CC)CC)nnc1-c1ccccn1 | inconclusive: 79.4 µM [inhibitor, single point] |  |
| O=C(Cc1ccccc1)Nc1ccccc1N1CCN(c2ccccc2)CC1 | inconclusive: 89.1 µM [inhibitor, single point] |  |
| Cc1ccc(C)c(NCC(O)c2ccccc2)c1 (stereo not drawn) |  | inactive: -33.3% |
| COc1ccc2cc(-c3csc(-c4cccnc4)n3)ccc2c1 | inconclusive: 89.1 µM [inhibitor, single point] |  |
| Cc1ccc(CN2CCC(c3cc(-c4ccc(Cl)cc4)n[nH]3)CC2)cc1 | inconclusive: 79.4 µM [inhibitor, single point] |  |
| CN(C(=O)CSc1ncnc2sc(-c3ccccc3)cc12)C1CCS(=O)(=O)C1 (stereo not drawn) | inconclusive: 79.4 µM [inhibitor, single point] |  |
| CCOC(=O)N1CCC(Nc2cccc(SC)c2)CC1 |  | inconclusive: -67.3% [inhibitor] |
| O=C(CSC1=NC2(CCCCCC2)N=C1c1ccccc1)Nc1ccc2c(c1)OCCO2 | inconclusive: 70.8 µM [inhibitor, single point] |  |
| CCCOC(=O)CSc1nnc2ccc3ccccc3n12 |  | inactive: -17% |

| SMILES | Potency | activity change, negative = inhibition |
| --- | --- | --- |
| O=C(CSc1nc2ccccc2nc1Cc1ccccc1)Nc1ccc2c(c1)OCO2 |  | inactive: 4.36% |
| COC(=O)c1ccc(C(=O)OC)c(NC(=S)N2CCN(c3cccc(Cl)c3)CC2)c1 | inconclusive: 35.5 µM [inhibitor, partial curve] |  |
| COc1ccc(NC(=O)c2ccc3c(c2)CCN3S(=O)(=O)c2ccc(C)cc2)cc1Cl |  | inactive: -5.38% |
| Clc1nssc1=Nc1ccc(Br)cc1 | active: 22.4 µM |  |
| CCOC(=O)c1cccc(NC(=O)C(C)n2c(C)c3cnn(-c4ccccc4)c(=O)c3c2C)c1 (stereo not drawn) |  | inactive: -13.2% |
| O=C(Nc1ccc(Br)cc1)c1cccc(S(=O)(=O)Nc2cnc3ccccc3c2)c1 | inconclusive: 79.4 µM [inhibitor, single point] |  |
| COc1ccc(-c2c([C@H]3[C@@H]4C=CCC[C@@]4(C)C(=O)N3Cc3ccccc3)ccc3ccccc23)cc1OC |  | inactive: -27.9% |
| CCOc1ccc2nc(SCC(=O)NC(=O)NCc3ccco3)[nH]c2c1 | inconclusive: 50.1 µM [inhibitor, partial curve] |  |
| Cc1[nH]n(-c2ccccc2)c(=O)c1/C=N/O | active: 50.1 µM |  |
| O=C(Nc1cc(N2CCCCC2)ncn1)c1ccccc1 | inconclusive: 79.4 µM [inhibitor, partial curve] |  |
| CCOc1cc(CNCc2cc(OC)cc(OC)c2)ccc1OC | inconclusive: 89.1 µM [inhibitor, single point] |  |
| COc1ccc(C2=NOC(Cn3nc(-c4ccccc4C)cc3C(=O)O)C2)cc1 (stereo not drawn) |  | inactive: 4.46% |
| COc1ccc(C(C)=O)cc1COC(=O)c1ccc(S(=O)(=O)N(C)C)cc1 | inconclusive: 89.1 µM [inhibitor, single point] |  |
| Cc1nc(C)c(C(=O)C2=C(O)C(=O)N(CCN3CCOCC3)C2c2cccnc2)s1 (stereo not drawn) | inconclusive: 79.4 µM [inhibitor, single point] |  |
| O=C(CCc1cn2ccccc2n1)NC1CCCc2c1cnn2-c1ccccc1F (stereo not drawn) | inconclusive: 39.8 µM [inhibitor, single point] |  |
| CCOC(=O)N1CCc2c(sc3c2c(=O)n(CCc2ccccc2)c(=O)n3Cc2ccc(F)cc2)C1 | inconclusive: 17.8 µM [inhibitor, full curve] |  |
| O=C(CN1CCCc2ccccc21)NC(=O)NCc1ccccc1 |  | inactive: 1.51% |
| COc1ccc(Br)cc1/C=C/C(=O)NC(=S)Nc1ccc(Cl)c(C(=O)O)c1 | inconclusive: 70.8 µM [inhibitor, partial curve] |  |
| Cc1cc(C(=O)Nc2nc(C)c(C(=O)N(C)C)s2)ccc1[N+](=O)[O-] |  | inactive: -5.55% |
| O=C(Nc1ncnc2c1CCC2)C12CC3CC(CC(C3)C1)C2 |  | inactive: 6.51% [at 57.1 µM] |
| Nc1ccc(C(=O)OCC(=O)Nc2ccc3c(c2)OCO3)cc1[N+](=O)[O-] | inconclusive: 89.1 µM [inhibitor, single point] |  |
| O=C(Nc1ccc(NC(=O)c2cccs2)cc1)c1ccc(Br)cc1 |  | inactive: -0.493% |
| COc1ccc(OC)c(C(c2nnnn2C2CCCC2)N2CCN(c3ccccc3F)CC2)c1 (stereo not drawn) | active: 50.1 µM |  |
| Cc1cc(Nc2ccc(Cl)cc2)n(-c2ccccc2)n1 |  | inactive: -2.59% |
| O=C(CN1C(=O)S/C(=C\c2ccc(O)c([N+](=O)[O-])c2)C1=O)Nc1ccc(N2CCOCC2)cc1 | active: 44.7 µM |  |

| SMILES | Potency | activity change, negative = inhibition |
| --- | --- | --- |
| Fc1ccc2c(c1)/C(=N/Nc1ccccn1)CCS2 | inconclusive: 70.8 µM [inhibitor, partial curve] |  |
| COc1ccccc1N1C(=O)C2ON(c3ccccc3)C(c3ccc(N(C)C)cc3)C2C1=O (stereo not drawn) | active: 35.5 µM |  |
| Cc1ccc(/C=C/C(=O)Nc2ccc(S(=O)(=O)Nc3onc(C)c3C)cc2)cc1 |  | inactive: -37.5% |
| Oc1c(Cl)cc(Cl)cc1CNc1nc2ccccc2[nH]1 | inconclusive: 39.8 µM [inhibitor, partial curve] |  |
| CSc1cccc(NC(=O)Cn2cccc2)c1 | inconclusive: 50.1 µM [inhibitor, partial curve] |  |
| Cn1cnnc1SCC(=O)Nc1ncc(C(F)(F)F)cc1Cl | inconclusive: 89.1 µM [inhibitor, single point] |  |
| Cn1c(=O)c(C(=O)COC(=O)c2cc(-c3ccco3)nc3ccccc23)c(N)n(CC2CC2)c1=O | inconclusive: 44.7 µM [inhibitor, partial curve] |  |
| COc1ccc(CN(C)CC(=O)Nc2sc3c(c2C#N)CCC3)c(OC)c1 | inconclusive: 56.2 µM [inhibitor, partial curve, poor fit] |  |
| COc1ccc(CCN=C(N)NS(=O)(=O)c2ccc(F)cc2)cc1 |  | inactive: -0.376% |
| CSc1nnc(-c2cccc(NC(=S)NN)c2)o1 | inconclusive: 56.2 µM [inhibitor, partial curve] |  |
| O=C1C=C(N(CCO)Cc2ccccc2)c2ccccc2C1=O | inconclusive: 50.1 µM [inhibitor, partial curve] |  |
| CC(=O)N1c2ccc(S(=O)(=O)N3CCC(C(=O)NCc4ccc(Cl)cc4)CC3)cc2CC1C (stereo not drawn) |  | inactive: -5.71% |
| Cc1nc(-c2ccccc2)sc1CCNC(=O)c1ccco1 |  | inactive: 14.8% |
| Cc1ccc(NC(=O)CN(C)C(=O)c2cc(-c3ccco3)nc3ccccc23)cc1 | active: 44.7 µM |  |
| COc1ccc(N2CCN(c3nc(-c4ccccc4F)nc4ccccc34)CC2)cc1 | inconclusive: 12.6 µM [inhibitor, full curve] |  |
| Cc1cc(=O)[nH]c(SCC(=O)Nc2nc(-c3ccccc3)cs2)n1 | inconclusive: 50.1 µM [inhibitor, partial curve] |  |
| CN(C)c1ccc(NC(=O)CSc2nnc(C3CCCCC3)n2N)cc1 | inconclusive: 50.1 µM [inhibitor, partial curve] |  |
| Cc1cc(C)c2nc(SCC(=O)NC(=O)c3cccn3C)cc(C)c2c1 |  | inactive: -7.78% |
| O=C(O)c1ccccc1-c1ccccc1C(=O)Nc1ccc2c(c1)[nH]c(=O)c1ccccc12 |  | inactive: -22.7% |
| O=C(CSCc1ccc(F)cc1)N1CCOCC1 | inconclusive: 7.08 µM [inhibitor, single point] |  |
| Clc1ccc(-c2csc(N3CCCCCC3)n2)cc1 | inconclusive: 100 µM [inhibitor, single point] |  |
| O=C(COC(=O)c1ccc(NS(=O)(=O)c2cccs2)cc1)NCc1ccco1 | active: 31.6 µM |  |
| CC1(N2CCOCC2)CC2(O)C(=[N+]1[O-])CCc1c2no[n+]1[O-] (stereo not drawn) |  | inconclusive: -53.3% [inhibitor] |
